Results taken from the supplement of paper PMC12217912.
This is one part of the list. Sequences were assembled here from the parent chain. Inactive controls read about 0.05.

B1: TEV protease; numbered along this chain (parent)
chain: MGESLFKGPRDYNPISSSICHLTNESDGHTTSLYGIGFGPFIITNKHLFRRNNGTLVVQSLHGVFKVKDTTTLQQHLVDGRDMIIIRMPKDFPPFPQKLKFREPQREERICLVTTNFQTKSMSSMVSDTSCTFPSGDGIFWKHWIQTKDGQCGSPLVSTRDGFIVGIHSASNFTNTNNYFTSVPKNFMELLTNQEAQQWVSGWRLNADSVLWGGHKVFMVKPEEPFQPVKEATQL

Variants of: B1
Assay: raw area under fraction-flipped curve 0-4 h after induction (AUC4h, not background-subtracted), DNA-recorder readout of cleavage of the substrate (dimensionless); higher = more cleavage of the substrate by the protease variant
Settings: temperature: 34 °C; time window: 0-4 h after rhamnose induction
Description: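 In vivo DNA recorder in E. coli TOP10(DE3) ΔrhaA at 34 °C. Each TEVp single-site mutant (parent TEVp 0) is paired with a single-site variant of the 7-mer TEVs (canonical ENLYFQ|S). The substrate sits between flexible linkers in a Bxb1-sfGFP-TEVs-SsrA fusion, so cleavage stabilises Bxb1 and speeds flipping of a recombination array, read by NGS. The value is the raw area under the fraction-flipped curve over 0-4 h after rhamnose induction (AUC4h), with ≥20 reads per time point. It is not background-subtracted; inactive controls average about 0.047.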
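Further: Bxb1 expression induced with 0.2% (w/v) L-rhamnose at OD600 near 0.5, cultures sampled hourly, flipped fraction per protease–substrate barcode pair counted by paired-end Illumina sequencing.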

| Variant | area with substrate ENLYFQA | area with substrate ENLYFQC | area with substrate ENLYFQG | area with substrate ENLYFQH | area with substrate ENLYFQI | area with substrate ENLYFQK | area with substrate ENLYFQL | area with substrate ENLYFQM | area with substrate ENLYFQN | area with substrate ENLYFQR | area with substrate ENLYFQS | area with substrate ENLYFQV | area with substrate ENLYFQY | area with substrate ENLYFQD | area with substrate ENLYFQE | area with substrate ENLYFQF | area with substrate ENLYFQP | area with substrate ENLYFQQ | area with substrate ENLYFQT | area with substrate ENLYFQW |
| --- | --- | --- | --- | --- | --- | --- | --- | --- | --- | --- | --- | --- | --- | --- | --- | --- | --- | --- | --- | --- |
| MGESLFKGPRDYNPISSSICHCTNESDGHTTSLYGIGFGPFIITNKHLFRRNNGTLVVQSLHGVFKVKDTTTLQQHLVDGRDMIIIRMPKDFPPFPQKLKFREPQREERICLVTTNFQTKSMSSMVSDTSCTFPSGDGIFWKHWIQTKDGQCGSPLVSTRDGFIVGIHSASNFTNTNNYFTSVPKNFMELLTNQEAQQWVSGWRLNADSVLWGGHKVFMVKPEEPFQPVKEATQL [L22C] | 0.081 | 0.0965 | 0.0763 | 0.0687 | 0.059 | 0.093 | 0.0586 | 0.0682 | 0.0644 | 0.0607 | 0.0888 | 0.0575 | 0.0687 |  |  |  |  |  |  |  |
| MGESLFKGPRDYNPISSSIWHLTNESDGHTTSLYGIGFGPFIITNKHLFRRNNGTLVVQSLHGVFKVKDTTTLQQHLVDGRDMIIIRMPKDFPPFPQKLKFREPQREERICLVTTNFQTKSMSSMVSDTSCTFPSGDGIFWKHWIQTKDGQCGSPLVSTRDGFIVGIHSASNFTNTNNYFTSVPKNFMELLTNQEAQQWVSGWRLNADSVLWGGHKVFMVKPEEPFQPVKEATQL [C20W] | 0.0414 | 0.0873 | 0.0476 |  | 0.0382 | 0.0573 | 0.0367 | 0.0544 | 0.054 | 0.0633 | 0.0476 | 0.0488 |  | 0.0455 | 0.0403 | 0.0619 | 0.0416 | 0.0275 | 0.0455 | 0.0364 |
| MGESLFKGPRPYNPISSSICHLTNESDGHTTSLYGIGFGPFIITNKHLFRRNNGTLVVQSLHGVFKVKDTTTLQQHLVDGRDMIIIRMPKDFPPFPQKLKFREPQREERICLVTTNFQTKSMSSMVSDTSCTFPSGDGIFWKHWIQTKDGQCGSPLVSTRDGFIVGIHSASNFTNTNNYFTSVPKNFMELLTNQEAQQWVSGWRLNADSVLWGGHKVFMVKPEEPFQPVKEATQL [D11P] | 0.0685 | 0.0754 | 0.0534 |  | 0.0664 | 0.0563 | 0.0403 | 0.0427 | 0.0648 | 0.0547 | 0.0651 |  | 0.0622 |  | 0.0719 | 0.0608 | 0.0596 | 0.065 | 0.0641 |  |
| MGESLFKGRRDYNPISSSICHLTNESDGHTTSLYGIGFGPFIITNKHLFRRNNGTLVVQSLHGVFKVKDTTTLQQHLVDGRDMIIIRMPKDFPPFPQKLKFREPQREERICLVTTNFQTKSMSSMVSDTSCTFPSGDGIFWKHWIQTKDGQCGSPLVSTRDGFIVGIHSASNFTNTNNYFTSVPKNFMELLTNQEAQQWVSGWRLNADSVLWGGHKVFMVKPEEPFQPVKEATQL [P9R] | 0.111 | 0.143 | 0.16 |  | 0.0644 | 0.0615 | 0.0622 | 0.111 | 0.0814 | 0.0527 | 0.127 | 0.0597 | 0.0699 | 0.0847 |  | 0.117 | 0.0479 | 0.0527 | 0.0608 | 0.0701 |
| MGESLFKGPRDYNPISPSICHLTNESDGHTTSLYGIGFGPFIITNKHLFRRNNGTLVVQSLHGVFKVKDTTTLQQHLVDGRDMIIIRMPKDFPPFPQKLKFREPQREERICLVTTNFQTKSMSSMVSDTSCTFPSGDGIFWKHWIQTKDGQCGSPLVSTRDGFIVGIHSASNFTNTNNYFTSVPKNFMELLTNQEAQQWVSGWRLNADSVLWGGHKVFMVKPEEPFQPVKEATQL [S17P] | 0.0864 | 0.116 | 0.0943 | 0.0638 | 0.0551 | 0.0767 | 0.0563 | 0.0819 | 0.0694 | 0.056 | 0.0928 | 0.0587 |  |  |  | 0.069 | 0.0575 | 0.0763 | 0.061 | 0.0645 |
| MGRSLFKGPRDYNPISSSICHLTNESDGHTTSLYGIGFGPFIITNKHLFRRNNGTLVVQSLHGVFKVKDTTTLQQHLVDGRDMIIIRMPKDFPPFPQKLKFREPQREERICLVTTNFQTKSMSSMVSDTSCTFPSGDGIFWKHWIQTKDGQCGSPLVSTRDGFIVGIHSASNFTNTNNYFTSVPKNFMELLTNQEAQQWVSGWRLNADSVLWGGHKVFMVKPEEPFQPVKEATQL [E3R] | 0.078 | 0.135 |  | 0.0833 | 0.0819 | 0.0618 | 0.0634 | 0.0658 |  |  | 0.0905 | 0.0591 |  |  |  | 0.0936 |  |  | 0.0534 |  |
| MGCSLFKGPRDYNPISSSICHLTNESDGHTTSLYGIGFGPFIITNKHLFRRNNGTLVVQSLHGVFKVKDTTTLQQHLVDGRDMIIIRMPKDFPPFPQKLKFREPQREERICLVTTNFQTKSMSSMVSDTSCTFPSGDGIFWKHWIQTKDGQCGSPLVSTRDGFIVGIHSASNFTNTNNYFTSVPKNFMELLTNQEAQQWVSGWRLNADSVLWGGHKVFMVKPEEPFQPVKEATQL [E3C] | 0.109 | 0.133 |  |  | 0.0519 | 0.0715 |  |  | 0.0751 | 0.0604 | 0.124 | 0.0597 | 0.0724 | 0.0682 | 0.0696 |  | 0.0622 |  | 0.0642 |  |
| MGESLFKGPRDYNPISSSWCHLTNESDGHTTSLYGIGFGPFIITNKHLFRRNNGTLVVQSLHGVFKVKDTTTLQQHLVDGRDMIIIRMPKDFPPFPQKLKFREPQREERICLVTTNFQTKSMSSMVSDTSCTFPSGDGIFWKHWIQTKDGQCGSPLVSTRDGFIVGIHSASNFTNTNNYFTSVPKNFMELLTNQEAQQWVSGWRLNADSVLWGGHKVFMVKPEEPFQPVKEATQL [I19W] | 0.0499 | 0.058 | 0.0559 | 0.049 |  | 0.0587 | 0.053 |  | 0.043 | 0.041 | 0.0576 |  | 0.0428 |  |  | 0.0519 |  |  |  | 0.0616 |
| MGESLFKGPRDYFPISSSICHLTNESDGHTTSLYGIGFGPFIITNKHLFRRNNGTLVVQSLHGVFKVKDTTTLQQHLVDGRDMIIIRMPKDFPPFPQKLKFREPQREERICLVTTNFQTKSMSSMVSDTSCTFPSGDGIFWKHWIQTKDGQCGSPLVSTRDGFIVGIHSASNFTNTNNYFTSVPKNFMELLTNQEAQQWVSGWRLNADSVLWGGHKVFMVKPEEPFQPVKEATQL [N13F] | 0.0963 | 0.0918 | 0.0867 | 0.0749 | 0.0651 | 0.0846 | 0.0551 | 0.0795 | 0.0669 | 0.0585 | 0.0946 | 0.0705 | 0.0691 | 0.0835 |  | 0.0671 | 0.0677 | 0.069 | 0.0622 | 0.0667 |
